Test [1] addresses T1, Peroxisome proliferator-activated receptor gamma (Homo sapiens, UniProt P37231).
T1 sequence (P37231 whole entry): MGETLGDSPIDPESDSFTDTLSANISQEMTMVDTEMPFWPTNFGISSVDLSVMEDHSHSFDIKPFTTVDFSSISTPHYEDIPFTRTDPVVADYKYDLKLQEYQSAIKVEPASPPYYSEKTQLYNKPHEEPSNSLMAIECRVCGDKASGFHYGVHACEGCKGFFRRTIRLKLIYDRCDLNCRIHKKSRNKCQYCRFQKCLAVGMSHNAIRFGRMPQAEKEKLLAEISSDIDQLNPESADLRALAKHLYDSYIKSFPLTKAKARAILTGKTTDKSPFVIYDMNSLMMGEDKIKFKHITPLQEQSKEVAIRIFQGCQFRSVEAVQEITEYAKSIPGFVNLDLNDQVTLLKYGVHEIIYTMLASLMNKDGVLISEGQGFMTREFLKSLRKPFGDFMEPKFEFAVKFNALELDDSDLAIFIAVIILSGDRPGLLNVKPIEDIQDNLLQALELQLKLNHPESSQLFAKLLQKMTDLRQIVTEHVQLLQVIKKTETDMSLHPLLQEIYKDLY

The target in test [2] is T1, Peroxisome proliferator-activated receptor gamma. The source holds these as a separate data set.
For test [3] the target is unchanged. The source holds these as a separate data set.

As to `CC(C)c1ccc(OCCCOc2ccc3c(c2)O[C@@](C)(C(=O)O)CC3)c(Cl)c1`, in test [1], half-maximal inhibition (IC50) required 5 µM. The molecule also yielded a half-maximal effective concentration (EC50) in test [2] of 3 µM. As for `CCOc1ccc(OCCCOc2ccc3c(c2)O[C@@](C)(C(=O)O)CC3)c(Cl)c1`, the IC50 in test [1] is more than 15 µM. Molecule `C[C@]1(C(=O)O)CCc2ccc(OCCCOc3ccc(C4CCCCC4)cc3Cl)cc2O1` registered an IC50 in test [1] of 5.8 µM. The molecule also showed an EC50 in test [2] of 0.7 µM.

The molecule `C[C@]1(C(=O)O)CCc2ccc(OCCCOc3ccc(OCC4CCC4)cc3Cl)cc2O1` had an IC50 in test [1] of 2 µM. The same molecule showed an EC50 in test [2] of 0.7 µM. In the same order, the values of `CC[C@]1(C(=O)O)CCc2ccc(OCCCOc3ccc(C4CCC5(CC4)CC5)cc3Cl)cc2O1` are 3.7 µM and 0.5 µM. As for `CC(C)(C)c1ccc(OCCCOc2ccc3c(c2)O[C@@](C)(C(=O)O)CC3)c(Cl)c1`, the IC50 in test [1] was more than 15 µM. `CC[C@]1(C(=O)O)CCc2ccc(OCCCOc3ccc(C4CCC(C)(C)CC4)cc3Cl)cc2O1`: the IC50 in test [1] is 5.7 µM. Moreover, the EC50 in test [2] was determined as 1.4 µM. On the same counts, the results for `CC[C@]1(C(=O)O)CCc2ccc(OCCCOc3ccc(C4CCCCC4)cc3Cl)cc2O1` are 1.4 µM and 0.4 µM. In test [1], `C[C@]1(C(=O)O)CCc2ccc(OCCCOc3ccc(OCC4CC4)cc3Cl)cc2O1` showed an IC50 of more than 15 µM. Take `C[C@]1(C(=O)O)CCc2ccc(OCCCOc3ccc(C4CCC5(CC4)CC5)cc3Cl)cc2O1`: 4.5 µM corresponded to half-maximal inhibition in test [1] (IC50). This molecule yielded an EC50 in test [2] of 1 µM.

In test [1], `CC[C@]1(C(=O)O)CCc2ccc(OCCCOc3ccc(C(C)C)cc3Cl)cc2O1` came in with an IC50 of 2.9 µM. The EC50 in test [2] was determined as 1.2 µM. With `C[C@]1(C(=O)O)CCc2ccc(OCCCOc3ccc(OC(F)(F)F)cc3Cl)cc2O1`, the half-maximal inhibitory concentration (IC50) in test [1] is more than 15 µM.

Turning to `CC(C)Oc1ccc(OCCCOc2ccc3c(c2)O[C@@](C)(C(=O)O)CC3)c(Cl)c1`, the IC50 in test [1] was more than 15 µM. In turn, `C[C@]1(C(=O)O)CCc2ccc(OCCCOc3ccc(OCC(F)(F)F)cc3Cl)cc2O1` showed an IC50 in test [1] of 6 µM. The midpoint of the response in test [2], the EC50, lay at 3 µM. In the same order, the values of `CC[C@]1(C(=O)O)CCc2ccc(OCCCOc3ccc(CC(C)C)cc3Cl)cc2O1` are 1.8 µM and 0.6 µM.

In test [1], `CC[C@]1(C(=O)O)CCc2ccc(OCCCOc3ccc(C(C)(C)C)cc3Cl)cc2O1` displayed an IC50 of 2.8 µM. In test [2], this molecule had an EC50 of 1 µM.

The molecule `CC1(C)CCC(c2ccc(OCCCOc3ccc4c(c3)O[C@@](C)(C(=O)O)CC4)c(Cl)c2)CC1` yielded an IC50 in test [1] of 6.4 µM. In test [2], this molecule showed an EC50 of 1 µM. Turning to `C[C@@]1(C(=O)O)CCc2ccc(OCCCOc3ccc(OCC(F)(F)F)cc3Cl)cc2O1`, the IC50 in test [1] was determined as 2.7 µM. For `C[C@]1(C(=O)O)CCc2ccc(OCCCOc3ccc(F)cc3Cl)cc2O1`, in test [1], the IC50 is more than 15 µM. Same read-out and setting: then `COc1ccc(OCCCOc2ccc3c(c2)O[C@@](C)(C(=O)O)CC3)c(Cl)c1`, with more than 15 µM. With `CC[C@]1(C(=O)O)CCc2ccc(OCCCOc3ccc(C4CCOCC4)cc3Cl)cc2O1`, the IC50 in test [1] is more than 15 µM. Also, in test [3], the EC50 is reported as 15.6 µM (not active).

In the case of `CC[C@]1(C(=O)O)CCc2ccc(OCCCOc3ccc(OCC(F)(F)F)cc3Cl)cc2O1`, half-maximal inhibition in test [1] (IC50) required 0.99 µM. In addition, in test [2], the EC50 amounted to 0.4 µM.

For the molecule `CC[C@]1(C(=O)O)CCc2ccc(OCCCOc3ccc(F)cc3Cl)cc2O1`, half-maximal inhibition in test [1] (IC50) required 4.3 µM. This molecule also displayed a concentration giving a half-maximal response (EC50) in test [2] of 3 µM.

Usually IC50 stands for the concentration at which inhibition is half-maximal. A higher IC50 goes with weaker potency in that assay. The term EC50 denotes the concentration needed to bring the measured effect to its halfway point. A lower EC50 goes with an effect from little substance.

Source of the values: ChEMBL document CHEMBL1140266, “(2R)-2-methylchromane-2-carboxylic acids: discovery of selective PPARalpha agonists as hypolipidemic agents” (Bioorg Med Chem Lett, 2005).
